Here are results for 71 compounds from PubChem BioAssay AID1240 (Sanford-Burnham Center for Chemical Genomics, 2008).

Each structure is given as a SMILES string. Hit rate of the full screen: of about 50,000 compounds, about 800 (1.6%) showed an effect of 50% or more. Some of the results follow.

This test concerns the target Bcl-2-like protein 10 (Homo sapiens) (UniProt Q9HD36). Kind of test: Phenotype converters, Bcl-B/TR3 peptide binding displacement, primary biochemical FP (AID 1240).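 Also: 0% = Bcl-B with tracer peptide and DMSO and 100% = tracer peptide lacking Bcl-B.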 The settings on record: GST-Bcl-B / FITC-TR3 peptide fluorescence polarization; stronger effect = higher value; compound at 3.75 mg/L. Background: In fluorescence polarisation assays a small probe gives low polarisation when free and higher when bound to something large.
Chain of UniProt Q9HD36 (Q9HD36 whole entry, looked up): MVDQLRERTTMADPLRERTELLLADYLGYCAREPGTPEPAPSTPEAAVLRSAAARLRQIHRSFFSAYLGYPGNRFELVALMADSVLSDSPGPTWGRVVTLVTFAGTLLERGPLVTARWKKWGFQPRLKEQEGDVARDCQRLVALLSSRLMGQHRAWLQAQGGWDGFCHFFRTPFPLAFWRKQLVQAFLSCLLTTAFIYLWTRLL
Turning to `Cc1ccc(N(Cc2ccc(C(=O)NC3CCCC3)cc2)S(C)(=O)=O)cc1C`, the displacement is -9%. On to `O=C(/C=N\O)NCCCNCc1ccccc1`, for which the displacement turned out to be 13.6%. `CCCOc1cccc(-c2nnc(NC(=O)Nc3cccc(Cl)c3)s2)c1`: the displacement was 10.5%. On to `CCOc1ccc(NC(=O)C2=C(C)NC(=S)NC2c2ccc(OC)c(OC)c2)cc1` (stereo unspecified), for which the displacement was -3.6%. On to `O=S(=O)(Nc1ccc(Cl)cc1Cl)c1ccc2ccccc2c1`, for which the displacement stood at 3%. For the compound `CC(=O)Nc1ccc(NC(=O)c2cccc(F)c2)cc1`, the displacement came out at 10.3%. For `CCc1ccc(N2C(=O)C3C(c4cccc(Cl)c4)OC4(C(=O)c5ccccc5C4=O)C3C2=O)cc1` (stereo unspecified), the displacement was -0.9%. For the compound `CC(C)C(C(=O)O)N1C(=O)/C(=C/c2cccc(O)c2)SC1=S` (stereo unspecified), the displacement amounted to 2.6%. For `CCOc1ccc2sc(C=NC(C)C)c(O)c2c1`, the displacement was -13.5%. The figure for `O=C(CSc1nc2ccccc2s1)NCc1ccccc1` is -6%; for `O=S(=O)(N/N=C/c1ccc(O)cc1)c1ccc(Cl)cc1` it is 9.5%; for `CCOc1cccc(/C=N/NC(=O)C2=C(C)Nc3ccccc3S2)c1O` it is -12.5%. Take `C=CCc1cccc2cc(C(=O)OCc3ccccc3)c(=O)oc12`: the displacement turned out to be 13.2%. Take `COc1ccc2c(c1)-c1c(ssc1=S)C(C)(C)N2C(=O)COc1ccccc1`: the displacement is -1.1%. With `Fc1ccc(NC(=S)Nc2cccc3ccccc23)cc1`, the displacement was 3.5%.

Regarding `CCN(CC)CCCCCCOc1c(C)cccc1C`, the displacement is 16.4%. For the compound `COC(=O)CCN1C(=O)/C(=C\c2c(F)cccc2Cl)SC1=S`, the displacement is -9.6%.

Regarding `Cc1ccc(C(=O)CSc2nc(O)cc(=O)[nH]2)c(C)c1`, the displacement amounted to 14.5%. For `COc1ccc(Cl)cc1NC(=O)C1=C(C)NC(=S)NC1c1ccc(F)cc1` (stereo unspecified), the displacement was 11.9%. For the compound `CCOC(=O)C1=C(O)/C(=C/c2cc(C)n(-c3ccc(C)cc3C)c2C)N=C1C`, the displacement is 13.3%. As for `O=C(NC(O)C(Cl)(Cl)Cl)c1ccc([N+](=O)[O-])cc1` (stereo unspecified), the displacement came out at 0.8%. For the compound `Cc1cc(C(=O)N=Nc2c(O)n(CCCC#N)c3ccccc23)n[nH]1`, the displacement is -28.4%.

Regarding `Nc1ccc(Nc2nc(-c3ccncc3)cs2)cc1`, the displacement is 12.8%. Turning to `Cc1cc(OCC(=O)N2CCN(c3ccccn3)CC2)ccc1Br`, the displacement was -2.4%. Consider `Cc1cc(C(C)(C)C)cc(C)c1NC(=O)C(F)(F)F`, for which the displacement is 19.4%. As to `COc1cc(/C=C2/C(=O)N(c3ccccc3)N=C2C)ccc1OC(=O)c1cccs1`, the displacement was found to be 13.4%. Take `CCOc1ccc(NC(=O)CC2S/C(=N\N=C\c3ccccc3OC)NC2=O)cc1` (stereo unspecified): the displacement is 9.6%. Consider `Cc1cc(=O)n2[nH]c(-c3ccc(Cl)cc3)cc2n1`, for which the displacement was 6.9%. Take `CCNC(=O)C(=O)Nc1ccc(OC)cc1`: the displacement amounted to 9.6%. In the case of `Cc1onc(-c2ccccc2Cl)c1C(=O)N1CCN(c2ccc([N+](=O)[O-])cc2Cl)CC1C` (stereo unspecified), the displacement came to 14.1%. In the case of `Cc1cc([N+](=O)[O-])ccc1NC(=S)NC(=O)c1ccco1`, the displacement is 8.2%. In the case of `COCCNC(=O)c1nn2c(C(F)(F)F)cc(-c3cccs3)nc2c1Cl`, the displacement worked out at 3.8%. With `COc1ccc(NC(=O)c2cc3ccc4c5ccccc5[nH]c4c3cc2O)cc1`, the displacement is 1.7%.

With `C#CCn1cc(/C=C2\C(=O)NC(=O)N(c3ccc(Br)c(C)c3)C2=O)c2ccccc21`, the displacement was 6.2%. For `NC(=O)c1cccc(N=Cc2cc([N+](=O)[O-])ccc2O)c1`, the displacement is -3.4%. With `COC(=O)c1ccc(/C=N\N2CCN(c3ccccc3OC)CC2)cc1`, the displacement is -6%. With `O=C(/C=C/c1ccccc1F)c1c(-c2ccccc2)c2ccccc2[nH]c1=O`, the displacement is -17.1%. Consider `COc1ccc(/C=N\N2CCN(c3ccccc3)CC2)c(OC)c1OC`, for which the displacement is -0.3%. The figure for `COC(=O)c1ccccc1N(Cc1ccccc1)S(=O)(=O)c1ccccc1` is 12.3%.

As for `CSc1ccc(/C=C/C(=O)c2ccc(NC(=O)c3ccco3)cc2)cc1`, the displacement is -3.6%. On to `CCN(CC)S(=O)(=O)c1ccc2c3c(cccc13)C(=O)N2`, for which the displacement amounted to 1.4%.

As to `Cc1ccc(-n2[nH]c(C)c(C=Nc3ccccc3C(=O)O)c2=O)cc1C`, the displacement amounted to 17.4%. Take `O=CNc1nc(C2COc3ccccc3O2)cs1` (stereo unspecified): the displacement was -4.2%.

Consider `Cc1ccc(-c2nc3s/c(=C/c4ccc(C(C)C)cc4)c(=O)n3n2)cc1`, for which the displacement was 8.5%. For the compound `COc1ccc(/C=C2\C(=O)N(c3nc(-c4ccc(C)cc4)cs3)N=C2C)cc1`, the displacement is 12.1%. With `COc1ccc(NC(=O)c2ccc(I)cc2)cc1Cl`, the displacement amounted to 13.6%. The figure for `CCCN1C(=O)c2ccccc2NC1c1ccc(OC)c(CSc2ccccn2)c1` (stereo unspecified) is 14.2%; for `CC/C(CNC(=O)c1ccccc1)=N/NC(=O)CN(CC)c1ccccc1` it is -12.8%; for `CN1C(=O)C(=Cc2ccc(N(C)C)c(Br)c2)C(=O)N(C)C1=O` it is 10.2%. On to `CC(C)c1nc2sc3c(c2c(=O)n1N)CC(C)(C)OC3`, for which the displacement was 4.9%. Turning to `CCN(CC)c1ccc(/C=C2/C(=O)NN(c3ccc(Br)cc3)C2=O)c(O)c1`, the displacement amounted to 38.1%. For the compound `COc1ccc(C2CC(=O)C3=C(C2)Nc2ccccc2NC3c2ccc(OC(C)=O)c(OC)c2)cc1` (stereo unspecified), the displacement was -4.1%. For `COc1cccc2cc(-c3nc(-c4ccccc4)cs3)c(=O)oc12`, the displacement amounted to 7.8%. As to `Cc1nc2c([nH]1)c(=O)oc1ccccc12`, the displacement was -7.3%. For the compound `COc1ccc(-c2c(C#N)c(N)nc(SCC(=O)c3ccc(O)c(O)c3)c2C#N)cc1`, the displacement is -39.7%. For the compound `NC(=O)N/N=C(/c1ccc2c(c1)OCCO2)C1CC1`, the displacement is 0.5%.

On to `CC1CCCCC1N1CCN(Cc2ccncc2)CC1` (stereo unspecified), for which the displacement was -7.2%. For `Cc1cc(C(=O)N2CCN(c3cccc(Cl)c3)CC2)ccc1[N+](=O)[O-]`, the displacement amounted to 13.2%. The figure for `O=C(Cn1cncn1)c1ccc(F)c(F)c1` is 16.9%; for `COc1cc(Oc2ccc(C(C)C)cc2C)nc(N)n1` it is 27.6%. For `CSCCOC(=O)C1=C(C)NC(=O)NC1c1cccc(Cl)c1` (stereo unspecified), the displacement was determined as 7.3%. The figure for `CC(C)COc1ccc(C(=O)Nc2cccnc2)cc1` is 2.7%; for `Cc1cc(OCC(=O)NC2CCCC2)ccc1Br` it is 1.8%. For the compound `COC(=O)C1=C(C)NC2=C(C(=O)c3ccccc32)C1c1ccccc1OCc1ccc(Cl)cc1Cl` (stereo unspecified), the displacement is -0.4%.

For `CN(C)c1ncnc2c1ncn2[C@@H]1OC(CO)C(O)C1O` (stereo partly specified), the displacement is -10.1%. Take `COc1ccc(C(=O)Nc2nc(C)cs2)cc1`: the displacement was 3.5%. `COc1ccc(C2CC(=O)Nc3c2cc(Br)c2ccccc32)c(OC)c1` (stereo unspecified): the displacement is 8.5%. For the compound `CCOCCOC(=O)C1=C(C)NC2=C(C(=O)CCC2)C1c1ccc(I)cc1` (stereo unspecified), the displacement stood at 2.1%. `Cc1cccc(C(=O)O/N=C(\N)c2ccc(Br)cc2)c1`: the displacement is -0.6%. As for `CCOc1ccc2c(c1)/C(=C1/SC(C(C)=O)=C(c3ccccc3)S1)C(=S)C(C)(C)N2`, the displacement stood at 17%. With `CC(=O)NC1=NC(=O)/C(=C\c2cccs2)S1`, the displacement is 109%.
